Laboratory results taken from PMC12820563.
The other results are listed elsewhere or left out. The list includes weakly bound sequences.

Each sequence was assayed against T1, MBP-FoxP3dN (UniProt Q99JB6) (assay: PD-seq (MBP pull-down with sequencing)). Settings: 20 mM Tris-HCl pH 7.5, 100 mM NaCl, 1.5 mM MgCl2, 0.4 uM protein, 0.1 uM dsDNA library, 30 min, room temperature, amylose pull-down; high values mean tight binding; double strand, one strand shown.
T1 sequence: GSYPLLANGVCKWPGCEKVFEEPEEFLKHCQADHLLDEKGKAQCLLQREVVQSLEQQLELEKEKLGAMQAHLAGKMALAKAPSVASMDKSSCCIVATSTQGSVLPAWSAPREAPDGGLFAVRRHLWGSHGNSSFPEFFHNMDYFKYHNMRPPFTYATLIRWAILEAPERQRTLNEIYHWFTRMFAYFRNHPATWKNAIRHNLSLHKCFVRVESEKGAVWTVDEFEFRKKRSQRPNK

Sequence	binding signal (RPM ratio (pull-down/input))
GATGATTGTTCTCCCAGCTGATGAATTGTTGTCTTCGAGTAAACAAATTTTCCTAATCTTTCTGTTCAAGCGCCATCTAC	5.62
GATGATTGTTCTCCCAGCTGATGAATTCAGGACATCGAGTAAACAAATTTTCCTAATCTTTCTGTTCAAGCGCCATCTAC	0.358
GATGATTGTTCTCCCAGCTGATGAATTAATTTAATCGAGTAAACAAATTTTCCTAATCTTTCTGTTCAAGCGCCATCTAC	0.482
GATGATTGTTCTCCCAGCTGATGAATTTACTGTATCGAGTAAACAAATTTTCCTAATCTTTCTGTTCAAGCGCCATCTAC	1.26
GATGATTGTTCTCCCAGCTGATGAATTACGCCACTCGAGTAAACAAATTTTCCTAATCTTTCTGTTCAAGCGCCATCTAC	6.17
GATGATTGTTCTCCCAGCTGATGAATTCGTAGCCTCGAGTAAACAAATTTTCCTAATCTTTCTGTTCAAGCGCCATCTAC	0.875
GATGATTGTTCTCCCAGCTGATGAATTCGGCGGCTCGAGTAAACAAATTTTCCTAATCTTTCTGTTCAAGCGCCATCTAC	0.636
GATGATTGTTCTCCCAGCTGATGAATTGGCACGCTCGAGTAAACAAATTTTCCTAATCTTTCTGTTCAAGCGCCATCTAC	0.437
GATGATTGTTCTCCCAGCTGATGAATTAGATGGATCGAGTAAACAAATTTTCCTAATCTTTCTGTTCAAGCGCCATCTAC	0.36
GATGATTGTTCTCCCAGCTGATGAATTTGGTTGTTCGAGTAAACAAATTTTCCTAATCTTTCTGTTCAAGCGCCATCTAC	5.35
GATGATTGTTCTCCCAGCTGATGAATTAACCTCCTCGAGTAAACAAATTTTCCTAATCTTTCTGTTCAAGCGCCATCTAC	0.273
GATGATTGTTCTCCCAGCTGATGAATTGGGCGCTTCGAGTAAACAAATTTTCCTAATCTTTCTGTTCAAGCGCCATCTAC	0.733
GATGATTGTTCTCCCAGCTGATGAATTCGGACAATCGAGTAAACAAATTTTCCTAATCTTTCTGTTCAAGCGCCATCTAC	0.32
GATGATTGTTCTCCCAGCTGATGAATTTGCCGGATCGAGTAAACAAATTTTCCTAATCTTTCTGTTCAAGCGCCATCTAC	0.286
GATGATTGTTCTCCCAGCTGATGAATTTATTTTTTCGAGTAAACAAATTTTCCTAATCTTTCTGTTCAAGCGCCATCTAC	4.63
GATGATTGTTCTCCCAGCTGATGAATTGGTAACCTCGAGTAAACAAATTTTCCTAATCTTTCTGTTCAAGCGCCATCTAC	0.474
GATGATTGTTCTCCCAGCTGATGAATTCAGTCAATCGAGTAAACAAATTTTCCTAATCTTTCTGTTCAAGCGCCATCTAC	0.356
GATGATTGTTCTCCCAGCTGATGAATTTGGCCGATCGAGTAAACAAATTTTCCTAATCTTTCTGTTCAAGCGCCATCTAC	0.473
GATGATTGTTCTCCCAGCTGATGAATTCGGAGTATCGAGTAAACAAATTTTCCTAATCTTTCTGTTCAAGCGCCATCTAC	0.535
GATGATTGTTCTCCCAGCTGATGAATTCCGCAATTCGAGTAAACAAATTTTCCTAATCTTTCTGTTCAAGCGCCATCTAC	4.91
GATGATTGTTCTCCCAGCTGATGAATTGTGATGGTCGAGTAAACAAATTTTCCTAATCTTTCTGTTCAAGCGCCATCTAC	1.72

Sequence	binding signal (RPM ratio (pull-down/input))
GATGATTGTTCTCCCAGCTGATGAATTACTGGATTCGAGTAAACAAATTTTCCTAATCTTTCTGTTCAAGCGCCATCTAC	0.293
GATGATTGTTCTCCCAGCTGATGAATTTTTTGACTCGAGTAAACAAATTTTCCTAATCTTTCTGTTCAAGCGCCATCTAC	0.273
GATGATTGTTCTCCCAGCTGATGAATTGGAGTTTTCGAGTAAACAAATTTTCCTAATCTTTCTGTTCAAGCGCCATCTAC	0.641
GATGATTGTTCTCCCAGCTGATGAATTGGCCCACTCGAGTAAACAAATTTTCCTAATCTTTCTGTTCAAGCGCCATCTAC	0.349
GATGATTGTTCTCCCAGCTGATGAATTTCTTGCATCGAGTAAACAAATTTTCCTAATCTTTCTGTTCAAGCGCCATCTAC	1
GATGATTGTTCTCCCAGCTGATGAATTGACTTGGTCGAGTAAACAAATTTTCCTAATCTTTCTGTTCAAGCGCCATCTAC	0.402
GATGATTGTTCTCCCAGCTGATGAATTGAAAATTTCGAGTAAACAAATTTTCCTAATCTTTCTGTTCAAGCGCCATCTAC	0.227
GATGATTGTTCTCCCAGCTGATGAATTCTGGTAGTCGAGTAAACAAATTTTCCTAATCTTTCTGTTCAAGCGCCATCTAC	0.541
GATGATTGTTCTCCCAGCTGATGAATTTAGCTTTTCGAGTAAACAAATTTTCCTAATCTTTCTGTTCAAGCGCCATCTAC	3.14
GATGATTGTTCTCCCAGCTGATGAATTTGTAACGTCGAGTAAACAAATTTTCCTAATCTTTCTGTTCAAGCGCCATCTAC	1.76
GATGATTGTTCTCCCAGCTGATGAATTTATGGGATCGAGTAAACAAATTTTCCTAATCTTTCTGTTCAAGCGCCATCTAC	0.404
GATGATTGTTCTCCCAGCTGATGAATTCAACAAATCGAGTAAACAAATTTTCCTAATCTTTCTGTTCAAGCGCCATCTAC	0.376
GATGATTGTTCTCCCAGCTGATGAATTCACCAGTTCGAGTAAACAAATTTTCCTAATCTTTCTGTTCAAGCGCCATCTAC	0.256
GATGATTGTTCTCCCAGCTGATGAATTGCGCCCTTCGAGTAAACAAATTTTCCTAATCTTTCTGTTCAAGCGCCATCTAC	2.29
GATGATTGTTCTCCCAGCTGATGAATTATATCAATCGAGTAAACAAATTTTCCTAATCTTTCTGTTCAAGCGCCATCTAC	0.56
GATGATTGTTCTCCCAGCTGATGAATTTTTAGTATCGAGTAAACAAATTTTCCTAATCTTTCTGTTCAAGCGCCATCTAC	0.38
GATGATTGTTCTCCCAGCTGATGAATTCTCCAAGTCGAGTAAACAAATTTTCCTAATCTTTCTGTTCAAGCGCCATCTAC	0.162
GATGATTGTTCTCCCAGCTGATGAATTAGACTAATCGAGTAAACAAATTTTCCTAATCTTTCTGTTCAAGCGCCATCTAC	0.311
GATGATTGTTCTCCCAGCTGATGAATTTAGGCTTTCGAGTAAACAAATTTTCCTAATCTTTCTGTTCAAGCGCCATCTAC	1.19
GATGATTGTTCTCCCAGCTGATGAATTCTCGCAGTCGAGTAAACAAATTTTCCTAATCTTTCTGTTCAAGCGCCATCTAC	0.436
GATGATTGTTCTCCCAGCTGATGAATTCGAGTGCTCGAGTAAACAAATTTTCCTAATCTTTCTGTTCAAGCGCCATCTAC	0.572

Sequence	binding signal (RPM ratio (pull-down/input))
GATGATTGTTCTCCCAGCTGATGAATTAGTTACTTCGAGTAAACAAATTTTCCTAATCTTTCTGTTCAAGCGCCATCTAC	1.03
GATGATTGTTCTCCCAGCTGATGAATTCAGCCAGTCGAGTAAACAAATTTTCCTAATCTTTCTGTTCAAGCGCCATCTAC	1.27
GATGATTGTTCTCCCAGCTGATGAATTGTGCTAATCGAGTAAACAAATTTTCCTAATCTTTCTGTTCAAGCGCCATCTAC	0.571
GATGATTGTTCTCCCAGCTGATGAATTACCTCTCTCGAGTAAACAAATTTTCCTAATCTTTCTGTTCAAGCGCCATCTAC	0.327
GATGATTGTTCTCCCAGCTGATGAATTCGCCGGCTCGAGTAAACAAATTTTCCTAATCTTTCTGTTCAAGCGCCATCTAC	0.225
GATGATTGTTCTCCCAGCTGATGAATTGGCTGCATCGAGTAAACAAATTTTCCTAATCTTTCTGTTCAAGCGCCATCTAC	1.02
GATGATTGTTCTCCCAGCTGATGAATTACTCTCATCGAGTAAACAAATTTTCCTAATCTTTCTGTTCAAGCGCCATCTAC	0.35
GATGATTGTTCTCCCAGCTGATGAATTTGAAACTTCGAGTAAACAAATTTTCCTAATCTTTCTGTTCAAGCGCCATCTAC	0.279
GATGATTGTTCTCCCAGCTGATGAATTCTCATTGTCGAGTAAACAAATTTTCCTAATCTTTCTGTTCAAGCGCCATCTAC	0.606
GATGATTGTTCTCCCAGCTGATGAATTAGCACAATCGAGTAAACAAATTTTCCTAATCTTTCTGTTCAAGCGCCATCTAC	0.552
GATGATTGTTCTCCCAGCTGATGAATTCTTGTCCTCGAGTAAACAAATTTTCCTAATCTTTCTGTTCAAGCGCCATCTAC	0.325
GATGATTGTTCTCCCAGCTGATGAATTTCTTAACTCGAGTAAACAAATTTTCCTAATCTTTCTGTTCAAGCGCCATCTAC	0.224
GATGATTGTTCTCCCAGCTGATGAATTGATAGCCTCGAGTAAACAAATTTTCCTAATCTTTCTGTTCAAGCGCCATCTAC	0.653
GATGATTGTTCTCCCAGCTGATGAATTGCAATATTCGAGTAAACAAATTTTCCTAATCTTTCTGTTCAAGCGCCATCTAC	1.86
GATGATTGTTCTCCCAGCTGATGAATTTTGAGCCTCGAGTAAACAAATTTTCCTAATCTTTCTGTTCAAGCGCCATCTAC	0.568
GATGATTGTTCTCCCAGCTGATGAATTATCCACATCGAGTAAACAAATTTTCCTAATCTTTCTGTTCAAGCGCCATCTAC	0.467
GATGATTGTTCTCCCAGCTGATGAATTGCCCTAGTCGAGTAAACAAATTTTCCTAATCTTTCTGTTCAAGCGCCATCTAC	0.363
GATGATTGTTCTCCCAGCTGATGAATTCAATCCTTCGAGTAAACAAATTTTCCTAATCTTTCTGTTCAAGCGCCATCTAC	0.264
GATGATTGTTCTCCCAGCTGATGAATTTCATTGTTCGAGTAAACAAATTTTCCTAATCTTTCTGTTCAAGCGCCATCTAC	2.03
GATGATTGTTCTCCCAGCTGATGAATTAGTCAGATCGAGTAAACAAATTTTCCTAATCTTTCTGTTCAAGCGCCATCTAC	0.274
GATGATTGTTCTCCCAGCTGATGAATTTCGCGTGTCGAGTAAACAAATTTTCCTAATCTTTCTGTTCAAGCGCCATCTAC	4.44
